Measurements as given in PubChem BioAssay AID686979 (National Center for Advancing Translational Sciences (NCATS), 2013).
The campaign covered roughly 420,000 compounds. About 50,000 (12%) were called active. Inconclusive results, whose numbers are uncertain, are shown with a selection of clear calls. Calls come from the whole dose curve; as a rule, active = well fitted inhibition curve with a large enough effect; inconclusive = small, poorly fitted or top-dose-only effect; inactive = flat fitted curve, though single readings scatter. Potencies of inconclusive entries are left out as doubtful fits.

Assay: qHTS for Inhibitors of human tyrosyl-DNA phosphodiesterase 1 (TDP1): qHTS in cells in presence of CPT; note: nearly all actives have a fitted effect of over 55% in size
Conditions: chicken DT40 Tdp1-/-;hTDP1 cells + 20 nM CPT, ATP luminescence, 48 h; activity change, negative = growth inhibition: at 46.2 µM (top of the series) unless noted
Outline: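 Chicken DT40 Tdp1-/- cells stably complemented with human TDP1 were seeded at 400 cells/well in medium containing 20 nM camptothecin, exposed to pin-transferred compounds, and grown at 37 °C for at least 48 hr. Viability was read as ATP luminescence.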
% is set by controls: 0 for no effect and ±100 for the full control effect; potency is the fitted concentration of half-maximal effect; tags give direction and shape of the fitted curve.

SMILES | activity change, negative = growth inhibition | Potency
Cc1ccc(S(=O)(=O)N2[C@@H](c3ccc(Cl)cc3)C(C(=O)O)=CC[C@H]2c2cccs2)cc1 | inactive: -4.48% | 
O=C(NCCOc1ccc(Cl)cc1)C1CC(=O)N(c2ccc(F)cc2)C1 (stereo not given) |  | inconclusive [inhibitor, partial curve]
CCc1ccc(NC(=O)CN(CC(=O)Nc2ccc(CC)cc2)CC(C)O)cc1 (stereo not given) |  | inconclusive [inhibitor, single point]
C=C(C)COc1ccc(-c2n[nH]c(C)c2-c2ccc(OC)c(OC)c2)c(O)c1 |  | active: 3.66 µM
Cc1c(Br)cccc1NC(=O)C1(C)CCN1Cc1ccccc1OC(F)F (stereo not given) |  | active: 25.9 µM
Cc1ccccc1NC(C)C(=O)N/N=C/c1c[nH]c2ccccc12 (stereo not given) | inactive: -2.75% | 
Cc1ccc(NC(=O)c2cc(S(=O)(=O)NCCC3=CCCCC3)ccc2F)cc1 |  | inconclusive [inhibitor, single point]
COc1ccc(CCC2=NCCN2C(CC(C)C)c2nc3ccccc3[nH]2)cc1 (stereo not given) |  | active: 20.6 µM
Cc1ccc(NC(=S)N(CCCN2CCCC2)Cc2cccn2Cc2ccc(Cl)cc2)cc1Cl |  | inconclusive [inhibitor, partial curve, poor fit]
CCCCn1c(N)c(N(Cc2ccccc2OC)C(=O)c2sccc2C)c(=O)[nH]c1=O | inactive: 1.25% | 
COc1ccccc1NC(=O)CN(Cc1ccco1)C(=O)c1cc(Cl)c(OC)c(OC)c1 |  | inconclusive [inhibitor, single point]
COc1ccc(NC(=O)CN(C)C(=O)c2ccc(N3CCCCCC3)c([N+](=O)[O-])c2)cc1 |  | inconclusive [inhibitor, single point]
C=CCN1C(=O)CSc2ccc(C(=O)NCc3ccco3)cc21 | inconclusive: -30.5% [inhibitor] | 
NS(=O)(=O)c1ccc(CCNC(=O)CN2CCN(Cc3cccc4ccccc34)CC2)cc1 |  | inconclusive [inhibitor, partial curve, poor fit]
O=C(/C=C/c1cccc(F)c1)OCC(=O)N1CCCC1 |  | inconclusive [inhibitor, full curve, poor fit]
COc1cc(CN2CCOc3ccc(CN4CCC(O)(c5cccnc5)CC4)cc3C2)ccc1F | inactive: 6.53% [at 9.04 µM] | 
COc1ccc(-n2c(-c3ccco3)nc3c(cnn3-c3ccc(C)cc3)c2=O)cc1 |  | active: 11.6 µM
Cc1ccc(C(=O)NNCC(=O)Nc2ccc(Cl)cc2F)cc1 | inactive: -2.39% | 
O=C(NCCCC1CCCC1)C1CCC(=O)N(Cc2cccc(F)c2)C1 (stereo not given) |  | inconclusive [inhibitor, single point]
Cc1ccc(NCC(=O)N/N=C/c2cccc(Oc3ccccc3)c2)cc1 |  | inconclusive [inhibitor, single point]
Cc1ccccc1-c1cc(C(=O)N/N=C/c2cccnc2)c2ccccc2n1 |  | inconclusive [inhibitor, full curve]
CCn1c(=O)n(CC)c2cc(N3CCCCC3)c(NC(=O)Nc3cc(Cl)ccc3OC)cc21 |  | active: 23.1 µM
COC(=O)C(CSCc1ccccc1)NC(=O)CCNC(=O)OCc1ccccc1 (stereo not given) |  | inconclusive [inhibitor, partial curve]
Fc1ccc(CSc2nnc(-c3cccnc3)o2)cc1 | inactive: -8.56% | 

SMILES | activity change, negative = growth inhibition | Potency
CCOc1ccc(CN2CCCC(CO)(Cc3ccccc3F)C2)cc1 (stereo not given) |  | inconclusive [inhibitor, single point]
CC(=O)O[C@@H]1[C@@H](O)[C@@H](O)[C@H](Oc2c(-c3ccc(O)cc3)oc3c(CC=C(C)C)c(O)cc(O)c3c2=O)O[C@H]1C |  | inconclusive [inhibitor, single point]
CC(C)C(=O)Nc1ccc2nc(SCCOc3ccccc3)sc2c1 | inactive: -25.2% | 
CCOC(=O)c1c(C)[nH]c(CCC(=O)Nc2ccccc2C(=O)OC)c1C |  | inconclusive [inhibitor, single point]
O=C(Nc1cc(-c2ccccc2)nn1-c1c(Cl)cccc1Cl)c1ccc(F)cc1 |  | active: 20.6 µM
CCOC(=O)N1CCN(C(=O)CCS(=O)(=O)c2ccc3c(c2)CC(C)N3C(=O)CC)CC1 (stereo not given) |  | inconclusive [inhibitor, single point]
CCCCOCc1cc(CN2CCN(c3cccc(Cl)c3)CC2)c(O)c2ncccc12 |  | active: 16.4 µM
CC(C)NC(=O)CN(Cc1ccc(F)cc1)C(=O)CCC(=O)Nc1nccs1 | inactive: -17.2% | 
Cc1ccc(NC(=O)C(C)SCC(=O)Nc2ccc(F)cc2)cc1S(=O)(=O)N1CCOCC1 (stereo not given) | inconclusive: -30.9% [inhibitor] | 
Cc1ccc(CNc2ccc(S(=O)(=O)N3CCOCC3)cc2[N+](=O)[O-])cc1 |  | inconclusive [inhibitor, single point]
CCc1ccc(N(CC(=O)Nc2ccccc2C(=O)N2CCOCC2)S(C)(=O)=O)cc1 | inactive: -3.24% | 
CC1CCN(CCCn2c(=S)[nH]c3c(sc4ccc([N+](=O)[O-])cc43)c2=O)CC1 |  | inconclusive [inhibitor, single point]
COc1cccc(-c2nc(CS(=O)CC(=O)NCCc3ccccc3)c(C)o2)c1 (stereo not given) |  | inconclusive [inhibitor, single point]
CC(C)=CCN1CCN(CCC2=C(C)CCCC2(C)C)CC1CCO (stereo not given) |  | inconclusive [inhibitor, single point]
CC(C)NC(=O)c1cc2c(-c3ccc(Cl)cc3)nn(C)c2s1 | inactive: -7.51% | 
O=C1c2cc(O)c(O)cc2S(=O)(=O)C1c1ccccc1 (stereo not given) | inactive: 1.68% | 
O=C(CSc1nnc(CNC(=O)c2c(F)cccc2Cl)o1)Nc1cccc(F)c1 | inconclusive: -2.42% [inhibitor] | 
CC1=C(C(=O)N2CCCCCC2)CC(CC(=O)NCCCN(C)C)C(=O)N1Cc1ccc(F)cc1 (stereo not given) | inactive: -21% | 
CCOc1ccc(C(=O)N2CCN(Cc3cc(=O)n4nc(-c5ccccc5Cl)sc4n3)CC2)cc1 | inactive: -3.71% | 
CCOc1cc(N2CCOCC2)c(OCC)cc1NC(=O)CSc1ncccc1C(=O)O |  | inconclusive [inhibitor, full curve]
CC(NC(=O)c1c(O)c2ccccc2n(C)c1=O)c1ccccc1 (stereo not given) |  | active: 23.1 µM
COc1cccc(C(=O)NC2CCN(CC(=O)Nc3nccs3)CC2)c1 |  | inconclusive [inhibitor, single point]
CCOC(=O)/C(C)=C1\NC(C)(C)Cc2ccccc21 | inactive: -22.7% | 
CN(Cc1nc(-c2ccncc2)no1)S(=O)(=O)c1ccc(Br)cc1 |  | inconclusive [inhibitor, single point]

SMILES | activity change, negative = growth inhibition | Potency
O=C(Nc1ccc2nn(-c3ccccc3)nc2c1)c1ccc(-c2cccc(Cl)c2)o1 | inactive: -25.1% | 
Cc1ccc(OCCCC(=O)Nc2ccc(N3CCOCC3)cc2)c(C)c1 | inactive: 7.41% | 
CC(=O)Oc1cccc(-c2nc3ccccc3c(=O)o2)c1 |  | inconclusive [inhibitor, single point]
CCC(CC)C(=O)c1c[nH]c(C(=O)NCc2ccccc2OC)c1 |  | active: 20.6 µM
COc1cc(NC(=O)c2ccc(-c3cccc([N+](=O)[O-])c3)o2)ccc1NC(=O)C(C)C |  | inconclusive [inhibitor, partial curve, poor fit]
COc1ccccc1NC(=O)C1=C(C)Nc2nc(SCc3cc(C)ccc3C)nn2C1c1ccccc1 (stereo not given) |  | active: 11.6 µM
CCCCN(CC)C(=O)Cn1cnc2ccc(S(=O)(=O)N3CCC(C)CC3)cc2c1=O | inactive: -16.4% | 
COc1ccc(S(=O)(=O)N2CCN(C(=O)c3cc4c(s3)CCC4)CC2)cc1 |  | inconclusive [inhibitor, single point]
COc1ccc(C(=O)Nc2ccc(S(=O)(=O)N3CCCCC3C)cc2)c(OC)c1OC (stereo not given) |  | active: 18.4 µM
O=C(c1ccc2c(=O)n(CCc3ccccc3)c(=O)[nH]c2c1)N1CCN(c2ccc(Cl)cc2)CC1 |  | active: 16.4 µM
C[C@@H]1NC(=O)c2cc([N+](=O)[O-])cc(I)c2OCC[C@@H](C(=O)NC(CC(=O)O)C(N)=O)NC(=O)[C@H](CC(N)=O)NC1=O (stereo not given in full) | inactive: 7.14% | 
Cc1ccc(NC(=O)CCOc2ccccc2C)cc1F |  | inconclusive [inhibitor, single point]
C[N+]12CCCCC1C(COC(=O)c1ccc3c(c1)OCO3)CCC2 (stereo not given) |  | inconclusive [inhibitor, single point]
CCOc1ccccc1C1CC(c2ccc(Cl)cc2)Nc2nc(N)nn21 (stereo not given) |  | active: 18.4 µM
CCOc1c(Br)cc(C(=O)OCC(=O)N2CCc3ccccc3C2)cc1OC |  | inconclusive [inhibitor, single point]
CC1CC(C)CN(CCCNC(=O)c2ccc(CS(=O)(=O)Cc3cccc(Cl)c3)o2)C1 (stereo not given) |  | inconclusive [inhibitor, single point]
CCC/C=C/c1ccc(CN2C(C(C)C)C(=O)N(Cc3cn(CCOCOC)nn3)CCS2(=O)=O)cc1 (stereo not given) |  | inconclusive [inhibitor, single point]
CCC(=C/c1sc2ccc3ccccc3c2[n+]1C)/C=C1\Sc2ccc3ccccc3c2N1C |  | active: 0.231 µM
O=C(OCC(=O)c1ccc[nH]1)c1ccc(Cl)nc1 | inconclusive: -25.6% [inhibitor] | 
COc1ccc(S(=O)(=O)N(C)c2ccc(C(=O)NCc3ccco3)cc2)cc1 |  | inconclusive [inhibitor, partial curve]
Cc1cc(C)c(S(=O)(=O)c2cc(F)ccc2C)c(=O)[nH]1 | inactive: 2.26% | 
Cn1c(=O)c2c(nc(NCCCO)n2Cc2cccc(C(F)(F)F)c2)n(C)c1=O |  | active: 18.4 µM
